Results from PubChem BioAssay AID1347073 (National Center for Advancing Translational Sciences (NCATS), 2019).
The whole screen tested about 45,000 compounds, of which about 200 (0.44%) were called active. This list was built around the results that the source calls inconclusive (neither active nor inactive); the mix of calls is not that of the screen. Calls follow the shape of the dose curve; as a rule, active = well fitted activation curve with a large enough effect; inconclusive = small, poorly fitted or top-dose-only effect; inactive = no such curve, though single readings can be large or run the other way. Potencies beside an inconclusive call are fits to weak or partial responses and may not hold up.

assay: qHTS of TDP-43 Inhibitors: NCGC Sytravon Library Screen; settings: yeast TDP-43 toxicity rescue, BacTiter-Glo growth, 24 h; growth rescue (activation): at 46.1 µM (top of the series); also: nearly all actives have a fitted effect of over 55% in size; as to growth rescue (activation): 0% is about no effect
Summary of the method: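 TDP-43-expressing yeast, pregrown in raffinose, seeded at OD600 0.02 in galactose medium with compound for 24 hr at 30 deg C. Growth read by BacTiter-Glo luminescence, so rescue of toxicity appears as activation.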
Potency is read from the fitted curve at half-maximal effect; tags tell the direction and shape of the fitted curve.

Structure (SMILES)	Potency	growth rescue (activation)
C=CCn1c(SCC(C)=O)nc2scc(-c3ccco3)c2c1=O	inconclusive: 28.2 µM [activator, single point]	
CCc1ccc2c(c1)C(c1ccc([N+](=O)[O-])cc1)=NNC(c1ccc(C)cc1)=N2		inactive: 10%
COc1ccc(C(=O)N2CCCCC2c2cc(C(=O)Nc3ccccc3)no2)cc1 (centres undefined)		inconclusive: 40.6% [activator]
COC(=O)c1ccc(OCC(=O)NC2CCCCCCC2)cc1	inconclusive: 6.31 µM [activator, partial curve, poor fit]	
CN(C)c1ccc(CNC(=O)C2CCC(CNc3c(N4CCCCC4)c(=O)c3=O)CC2)cc1 (centres undefined)	inconclusive: 35.5 µM [activator, single point]	
COc1cccc(CNc2nc3cc(-c4cscc4C)sc3c(=O)n2C)c1	inconclusive: 25.1 µM [activator, single point]	
CCNC(=S)N/N=C(\C)c1cc2ccccc2o1	inconclusive: 20 µM [activator, single point]	
N#Cc1ccccc1OCC(=O)Nc1ccc2c(c1)OCCCO2	inconclusive: 3.16 µM [activator, partial curve, poor fit]	
CCOC(=O)c1cc(-c2ccccc2)n(CCC(=O)N2CCN(c3ccccc3OC)CC2)c1C	inconclusive: 35.5 µM [activator, single point]	
COC(=O)Cc1ccc(NC(=S)NCCSc2ccc(Cl)cc2)cc1	inconclusive: 35.5 µM [activator, partial curve, poor fit]	
CCOC(=O)C1(Cc2ccc(Cl)cc2)CCN(C(=O)c2cscn2)CC1	inconclusive: 20 µM [activator, partial curve, poor fit]	
COCc1cc(N2CCOCC2)nc(SCc2ccc(Cl)cc2)n1	inconclusive: 17.8 µM [activator, partial curve, poor fit]	
Cc1ccc(OCc2n[nH]c(=S)n2-c2ccc(C)cc2)cc1		inactive: 12.9%
COc1ccc(NC(=O)COC(=O)CCCOc2ccc(Cl)cc2Cl)cc1	inconclusive: 10 µM [activator, partial curve, poor fit]	
COc1cccc(CC2(CO)CCN(Cc3cnc(-c4cccc(C)c4)nc3)CC2)c1		inactive: 8.67%
CC(=O)c1ccc(NC(=O)COC(=O)CCC2CCCC2)cc1		inconclusive: 43% [activator]
COc1ccc(-c2csc(-c3ccccc3)n2)c(OC)c1	inconclusive: 11.2 µM [activator, single point]	
Cc1nn2c(C)c(C(=O)Nc3ccccc3)cnc2c1-c1ccccc1	inconclusive: 20 µM [activator, partial curve, poor fit]	
Cc1cccc(NC(=S)NCCC(c2ccccc2)c2ccccc2)c1	inconclusive: 11.2 µM [activator, partial curve, poor fit]	
O=C(CSCc1cnn(-c2ccccc2)c1-n1cccc1)NCc1cccs1	inconclusive: 20 µM [activator, partial curve, poor fit]	
c1ccc(C(Cc2nc(-c3ccccn3)no2)c2ccccc2)cc1	inconclusive: 35.5 µM [activator, partial curve, poor fit]	
CC(O)(c1cccc(F)c1)c1nc(-c2cccc(C(=O)O)c2)cs1 (centres undefined)		inconclusive: 40.9% [activator]
CCCc1cc(C(=O)N2CCN(c3ccc(C(F)(F)F)cn3)CC2)sc1C	inconclusive: 12.6 µM [activator, partial curve, poor fit]	
COCCNc1oc(/C=C/c2ccc(F)cc2)nc1C#N	inconclusive: 20 µM [activator, partial curve, poor fit]	
